The chains are these.
B1: PhoQ; a variant is named by its letters at X, in order, P23837 (parent)
chain: MKKLLRLFFPLSLRVRFLLATAAVVLVLSLAYGMVALIGYSVSFDKTTFRLLRGESNLFYTLAKWENNKLHVELPENIDKQSPTMTLIYDENGQLLWAQRDVPWLMKMIQPDWLKSNGFHEIEADVNDTSLLLSGDHSIQQQLQEVREDDDDAEMTHSVAVNVYPATSRMPKLTIVVVDTIPVELKSSYMVWSWFIYVLSANLLLVIPLLWVAAWWSLRPIEALAKEVRELEEHNRELLNPATTRELTSLVRNLNRLLKSERERYDKYRTTLTDLTHSLKTPLXXLQXXLRSLRSEKMSVSDAEPVMLEQISRISQQIGYYLHRASMRGGTLLSRELHPVAPLLDNLTSALNKVYQRKGVNISLDISPEISFVGEQNDFVEVMGNVLDNACKYCLEFVEISARQTDEHLYIVVEDDGPGIPLSKREVIFDRGQRVDTLRPGQGVGLAVAREITEQYEGKIVAGESMLGGARMEVIFGRQHSAPKDE

Some of the results follow.

Variants of B1 are the subject of this assay. Description: enrichment ratio after two sorts for PhoP signalling (ratio (wild type AVST 3.29)); higher = more functional. The note with it: with PhoP (E. coli).
Take NNSC: the enrichment ratio was at most 0.25.
Consider FGCR, for which the enrichment ratio was at most 0.25.
The result for WDQR reads at most 0.25.
With LVNW the figure was at most 0.25; with TWCK, at most 0.25.
ICLN: the enrichment ratio turned out to be 3.97.
The result for ERHC reads at most 0.25.
With DRLY the figure was at most 0.25.
With VVDM the figure was at most 0.25; with ICKI, at most 0.25; with MCLP, at most 0.25.
In the case of SDSY, the enrichment ratio was at most 0.25.
The result for FSSM reads at most 0.25; that for STHM, at most 0.25.
The result for QYSF reads at most 0.25; that for NRCI, at most 0.25.
The result for SHPT reads at most 0.25.
On to DVFE, for which the enrichment ratio was at most 0.25.
The result for TQTK reads at most 0.25; that for NEFV, at most 0.25.
AVNI: the enrichment ratio is at most 0.25.
The result for EYFR reads at most 0.25; that for QAYF, 4.32; that for FQTA, at most 0.25.
As to LLMF, the enrichment ratio was at most 0.25.
With AQFS the figure was 0.395.
Take IASY: the enrichment ratio was at most 0.25.
With QPVW the figure was at most 0.25; with WEQG, at most 0.25; with NCRD, at most 0.25.
With NCFN the figure was at most 0.25; with TKND, 12.6; with VQMI, at most 0.25.
The result for WNDS reads 1.17.
Take KFYD: the enrichment ratio was at most 0.25.
The result for HAQG reads at most 0.25; that for SWLV, at most 0.25.
For the variant VHEQ, the enrichment ratio was at most 0.25.
The result for FKKY reads at most 0.25; that for WMYW, at most 0.25.
As for DNME, the enrichment ratio is at most 0.25.
The result for KLFY reads at most 0.25; that for HMAL, at most 0.25; that for KNSS, at most 0.25.
The result for ISLP reads at most 0.25.
The result for PHCD reads at most 0.25; that for FRNE, at most 0.25; that for PFRN, at most 0.25.
With WDFD, the enrichment ratio was at most 0.25.
With YTKR the figure was at most 0.25; with NFNS, at most 0.25; with HHHN, at most 0.25.
Take YIRK: the enrichment ratio is at most 0.25.
With RHQG the figure was at most 0.25; with ADVR, at most 0.25.
With FLNA the figure was at most 0.25; with TGNA, 0.391.
The result for MGWY reads 4.8.
On to MIIL, for which the enrichment ratio was at most 0.25.
With MWHL the figure was at most 0.25; with YEYL, at most 0.25.
The result for VGLE reads at most 0.25.
The result for MIPI reads at most 0.25; that for ECIM, at most 0.25; that for GVTC, at most 0.25.
Take NVCR: the enrichment ratio is at most 0.25.
With EHGV the figure was at most 0.25; with RVQW, at most 0.25; with DHLS, at most 0.25.
With NALL the figure was 5.99; with ENTD, at most 0.25.
With PCFS the figure was at most 0.25.
In the case of QAYE, the enrichment ratio was at most 0.25.
The result for NYFM reads at most 0.25; that for YIIV, at most 0.25.
With DSNS the figure was at most 0.25.
With RIIE the figure was at most 0.25.
Consider LEQL, for which the enrichment ratio is at most 0.25.
Take HISL: the enrichment ratio is 1.69.
The result for VNTD reads at most 0.25; that for DCGC, at most 0.25; that for APYT, at most 0.25.
The result for LDMP reads at most 0.25; that for IVAN, at most 0.25; that for QNYW, at most 0.25.
With DPYR the figure was at most 0.25; with LGST, at most 0.25.
Consider KVEG, for which the enrichment ratio is at most 0.25.
With IVPY the figure was at most 0.25; with EASQ, at most 0.25.
The result for NDMC reads at most 0.25; that for QFMN, at most 0.25.
The result for WIRV reads at most 0.25.
Take TNGH: the enrichment ratio was found to be 7.13.
With PDIP, the enrichment ratio is at most 0.25.
Consider TCPC, for which the enrichment ratio was at most 0.25.
For PLHE, the enrichment ratio is at most 0.25.
The result for YFYG reads at most 0.25; that for SNDI, at most 0.25.
The result for DWPA reads at most 0.25.
With VHVM the figure was at most 0.25; with MIMQ, 9.67; with INVW, at most 0.25.
As to SKQR, the enrichment ratio is at most 0.25.
With WFRY the figure was at most 0.25.
For the variant DRWR, the enrichment ratio was at most 0.25.
The result for HDRS reads at most 0.25.
With VPSP the figure was at most 0.25; with SGAY, 15.2; with LYMG, at most 0.25.
With KRHM the figure was at most 0.25.
Turning to PAKY, the enrichment ratio is at most 0.25.
The result for WDMW reads at most 0.25.
The result for LQNP reads 0.774.
The result for MWTK reads at most 0.25; that for DNYH, at most 0.25; that for LRQY, at most 0.25.
As to TMNT, the enrichment ratio is 11.9.
The result for AHSS reads at most 0.25; that for KNRI, at most 0.25.
The result for RNAY reads at most 0.25; that for RHWL, at most 0.25; that for MYHG, at most 0.25.
The result for EDGC reads at most 0.25; that for RAVT, at most 0.25; that for TNAD, at most 0.25.
As to WPCS, the enrichment ratio was at most 0.25.
With PSAA, the enrichment ratio was at most 0.25.
The result for WGFK reads at most 0.25; that for SGPP, at most 0.25.
The result for APRY reads at most 0.25.
The result for TIDV reads at most 0.25; that for QCPE, at most 0.25.
Turning to DWEA, the enrichment ratio is at most 0.25.
With AGVP the figure was at most 0.25.
With HGNA the figure was at most 0.25; with AYHR, at most 0.25; with NWWL, 0.392.
The result for HLTW reads at most 0.25.
Take FWVT: the enrichment ratio is at most 0.25.
With VQGI the figure was at most 0.25; with IWRE, at most 0.25; with ASKW, at most 0.25.
The result for RDAK reads at most 0.25; that for DLQW, at most 0.25; that for KAEA, at most 0.25.
With GLWL the figure was at most 0.25; with TNGQ, 6.25; with TPER, at most 0.25.
For TVWT, the enrichment ratio was at most 0.25.
The result for SPVT reads at most 0.25; that for FDPN, at most 0.25; that for RGEW, at most 0.25.

Values taken from a collection of fitness landscapes (doi:10.1126/science.1257360).
